# Data: the supplement of paper PMC8728848
# Some of the results follow.
# B1: NPA (Narcissus pseudonarcissus), C0HM45 (protein)
# chain: DNILYSGETLSPGEFLNNGRYVFIMQEDCNLVLYDVDKPIWATNTGGLDRRCHLSMQSDGNLVVYSPRNNPIWASNTGGENGNYVCVLQKDRNVVIYGTARWATGTNIH
# Experiments:
# Test in all cases: glycan array binding signal (z-score within array); higher = stronger binding
# Settings in all cases: glycan notation: IUPAC condensed, linker removed
# [1] = biological target: GlcNAc(b1-3)Gal(b1-4)GlcNAc(b1-3)Gal(b1-4)GlcNAc(b1-3)Gal(b1-4)GlcNAc(b1-3)Gal(b1-4)GlcNAc(b1-2)[GlcNAc(b1-3)Gal(b1-4)GlcNAc(b1-3)Gal(b1-4)GlcNAc(b1-3)Gal(b1-4)GlcNAc(b1-3)Gal(b1-4)GlcNAc(b1-6)]Man(a1-6)[GlcNAc(b1-3)Gal(b1-4)GlcNAc(b1-3)Gal(b1-4)GlcNAc(b1-3)Gal(b1-4)GlcNAc(b1-3)Gal(b1-4)GlcNAc(b1-2)Man(a1-3)]Man(b1-4)GlcNAc(b1-4)[Fuc(a1-6)]GlcNAc
# Method in brief: (§1)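 Negative Z-scores can be read as non-binding. The Z-score is calculated within each array and then averaged across arrays of one protein sequence at different concentrations or buffers and across linkers. Arrays, 3228 in all, were curated from the Consortium for Functional Glycomics database and kept only where the protein sequence was available.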
# [2] = biological target: GlcNAc(b1-3)Gal(b1-4)GlcNAc(b1-3)Gal(b1-4)GlcNAc(b1-3)GalNAc
# Method in brief: as §1
# [3] = biological target: GlcNAc(b1-3)Gal(b1-4)GlcNAc(b1-3)GalNAc
# Method in brief: as §1
# [4] = biological target: GlcNAc(b1-3)Gal(b1-4)GlcNAc(b1-3)[GlcNAc(b1-3)Gal(b1-4)GlcNAc(b1-3)]GalNAc
# Method in brief: as §1
# [5] = biological target: GlcNAc(b1-3)Gal(b1-4)GlcNAc(b1-6)[Gal(b1-3)]GalNAc
# Method in brief: as §1
# [6] = biological target: GlcNAc(b1-3)Gal(b1-4)GlcNAc(b1-6)[GlcNAc(b1-3)Gal(b1-3)]GalNAc
# Method in brief: as §1
# [7] = biological target: GlcNAc(b1-3)Gal(b1-4)GlcNAc(b1-6)[GlcNAc(b1-3)]Gal(b1-4)GlcNAc
# Method in brief: as §1
# GlcNAc(b1-3)GalNAc = biological target: GlcNAc(b1-3)GalNAc
# Method in brief: as §1
# GlcNAc(b1-3)Man = biological target: GlcNAc(b1-3)Man
# Method in brief: as §1
# [8] = biological target: GlcNAc(b1-3)[GlcNAc(b1-4)][GlcNAc(b1-6)]GlcNAc
# Method in brief: as §1
# [9] = biological target: GlcNAc(b1-3)[GlcNAc(b1-6)]Gal(b1-4)GlcNAc
# Method in brief: as §1
# [10] = biological target: GlcNAc(b1-3)[GlcNAc(b1-6)]GalNAc
# Method in brief: as §1
# [11] = biological target: GlcNAc(b1-3)[GlcNAc(b1-6)]GlcNAc(b1-4)GlcNAc
# Method in brief: as §1
# [12] = biological target: GlcNAc(b1-4)Gal(b1-4)GlcNAc
# Method in brief: as §1
# GlcNAc(b1-4)GlcNAc = biological target: GlcNAc(b1-4)GlcNAc
# Method in brief: as §1
# [13] = biological target: GlcNAc(b1-4)GlcNAc(b1-4)GlcNAc
# Method in brief: as §1
# [14] = biological target: GlcNAc(b1-4)GlcNAc(b1-4)GlcNAc(b1-4)GlcNAc(b1-4)GlcNAc
# Method in brief: as §1
# [15] = biological target: GlcNAc(b1-4)GlcNAc(b1-4)GlcNAc(b1-4)GlcNAc(b1-4)GlcNAc(b1-4)GlcNAc
# Method in brief: as §1
# [16] = biological target: GlcNAc(b1-4)[GlcNAc(b1-6)]GalNAc
# Method in brief: as §1
# [17] = biological target: GlcNAc(b1-6)Gal(b1-4)GlcNAc
# Method in brief: as §1
# GlcNAc(b1-6)GalNAc = biological target: GlcNAc(b1-6)GalNAc
# Method in brief: as §1
# [18] = biological target: GlcNAc6S(b1-3)Gal(b1-4)GlcNAc
# Method in brief: as §1
# Kdn(a2-3)Gal(b1-3)GalNAc = biological target: Kdn(a2-3)Gal(b1-3)GalNAc
# Method in brief: as §1
binder,measurement,setting,value
B1,glycan array binding signal (z-score),[1],-0.003
same,glycan array binding signal (z-score),[2],-0.139
same,glycan array binding signal (z-score),[3],-0.118
same,glycan array binding signal (z-score),[4],-0.101
same,glycan array binding signal (z-score),[5],-0.143
same,glycan array binding signal (z-score),[6],-0.131
same,glycan array binding signal (z-score),[7],-0.141
same,glycan array binding signal (z-score),GlcNAc(b1-3)GalNAc,-0.146
same,glycan array binding signal (z-score),GlcNAc(b1-3)Man,-0.145
same,glycan array binding signal (z-score),[8],-0.134
same,glycan array binding signal (z-score),[9],-0.159
same,glycan array binding signal (z-score),[10],-0.147
same,glycan array binding signal (z-score),[11],-0.205
same,glycan array binding signal (z-score),[12],-0.169
same,glycan array binding signal (z-score),GlcNAc(b1-4)GlcNAc,-0.124
same,glycan array binding signal (z-score),[13],-0.122
same,glycan array binding signal (z-score),[14],-0.127
same,glycan array binding signal (z-score),[15],-0.115
same,glycan array binding signal (z-score),[16],-0.146
same,glycan array binding signal (z-score),[17],-0.138
same,glycan array binding signal (z-score),GlcNAc(b1-6)GalNAc,-0.139
same,glycan array binding signal (z-score),[18],-0.137
same,glycan array binding signal (z-score),Kdn(a2-3)Gal(b1-3)GalNAc,-0.132
